Assay results taken from patent US12102672B2, “Immunogenic sequences from a phage tail length tape measure protein, bacteria expressing the same and their use in treating a cancer” (INSTITUT GUSTAVE ROUSSY, priority 2017, dated 2024).

Test system: TMP1-specific CD8+ T cells
Conditions: oral gavage + CTX; dLN/mLN, spleen or MCA205 tumor

## Enterococcus hirae strain IGR7 [IGR 7]
  accumulation of TMP epitope 1 prophage 2 specific CD8+ T cells (tetramer): accumulate in dLN and spleen
